Screen size: about 310,000 compounds; about 14,000 (4.5%) showed an effect of 50% or more. The effect is printed as a negative number. The list shows a part of the results.
target: human ether-à-go-go-related gene (hERG) potassium channel (human, UniProt Q12809); assay: primary screen, population patch clamp on CHO cells stably expressing hERG
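Further: peak tail current of the secondary pulse compared with the same well before compound.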

human ether-à-go-go-related gene (hERG) potassium channel, sequence (Q12809 whole entry, looked up): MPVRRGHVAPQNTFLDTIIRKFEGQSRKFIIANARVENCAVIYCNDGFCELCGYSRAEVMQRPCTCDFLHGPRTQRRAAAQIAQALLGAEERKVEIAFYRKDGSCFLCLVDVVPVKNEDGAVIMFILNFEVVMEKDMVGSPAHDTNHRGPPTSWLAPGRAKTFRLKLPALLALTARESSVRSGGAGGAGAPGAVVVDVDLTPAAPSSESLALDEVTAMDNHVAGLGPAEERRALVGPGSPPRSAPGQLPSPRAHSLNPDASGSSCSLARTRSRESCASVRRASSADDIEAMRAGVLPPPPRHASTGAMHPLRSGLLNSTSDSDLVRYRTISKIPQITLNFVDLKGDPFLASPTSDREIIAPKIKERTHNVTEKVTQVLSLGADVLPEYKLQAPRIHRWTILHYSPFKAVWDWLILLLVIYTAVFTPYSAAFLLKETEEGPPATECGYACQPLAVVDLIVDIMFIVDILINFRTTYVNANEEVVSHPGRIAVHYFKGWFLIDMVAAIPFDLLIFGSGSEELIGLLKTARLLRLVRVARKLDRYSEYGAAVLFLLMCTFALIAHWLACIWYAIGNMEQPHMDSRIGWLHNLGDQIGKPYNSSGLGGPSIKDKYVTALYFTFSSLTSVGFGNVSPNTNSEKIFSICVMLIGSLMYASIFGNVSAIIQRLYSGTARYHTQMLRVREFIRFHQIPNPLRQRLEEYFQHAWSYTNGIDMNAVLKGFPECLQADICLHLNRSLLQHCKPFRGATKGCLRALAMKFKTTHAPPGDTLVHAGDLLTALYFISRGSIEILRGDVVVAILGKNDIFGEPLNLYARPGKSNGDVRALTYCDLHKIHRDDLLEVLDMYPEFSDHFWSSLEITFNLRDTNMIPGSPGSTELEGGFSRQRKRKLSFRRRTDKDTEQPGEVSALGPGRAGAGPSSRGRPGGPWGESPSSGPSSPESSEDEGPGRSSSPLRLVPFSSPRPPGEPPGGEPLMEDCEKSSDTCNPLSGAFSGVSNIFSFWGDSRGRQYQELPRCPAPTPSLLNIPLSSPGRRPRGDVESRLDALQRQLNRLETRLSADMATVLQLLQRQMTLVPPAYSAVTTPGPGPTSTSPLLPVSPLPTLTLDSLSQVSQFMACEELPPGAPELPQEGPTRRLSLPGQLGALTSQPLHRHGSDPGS

Row | Structure (SMILES) | hERG current change (%, negative = inhibition) at 10uM
1 | CCOC(=O)Cn1c(=O)oc2cc(S(=O)(=O)NCCC(C)C)ccc21 | 8.29%
2 | CCOC(=O)Cn1c(=O)n(Cc2ccco2)c(=O)c2ccc(C(=O)NCCc3ccccc3)cc21 | -53.2%
3 | O=C(NCC1CCCO1)c1ccc(NS(=O)(=O)c2cccs2)cc1 (stereo not shown) | 18.2%
4 | CC(Oc1ccccc1F)c1nnc(SCC(=O)c2c(N)n(C3CC3)c(=O)[nH]c2=O)o1 (stereo not shown) | -4.61%
5 | N=c1c(C(=O)NCCc2ccccc2)cc2c(=O)n3ccccc3nc2n1CCCN1CCOCC1 | -76.2%
6 | O=C(CCC(=O)c1cccs1)NCc1ccc(Cl)cc1 | -7.97%
7 | COC(=O)C1=C(C)NC(=O)NC1c1ccco1 (stereo not shown) | 14.5%
8 | COC(=O)C1=C(C)N(C2CCCCC2)C(=O)C1 | 9.82%
9 | CCC(=O)Oc1ccc2c(C)cc(=O)oc2c1C(=O)CC | 14%
10 | NC(=O)c1cc([N+](=O)[O-])ccc1NCc1cccc2ccccc12 | 10.2%
11 | CC(C)=NNc1nc2c(c(=O)n(C)c(=O)n2C)n1C | -1.35%
12 | COc1cccc(CNC(=O)CCC2CCCN(C(=O)CCC(F)(F)F)C2)c1 (stereo not shown) | -5.17%
13 | Cc1cc(NC(=O)C(C)Oc2ccc(Cl)cc2Cl)n(-c2ccccc2)n1 (stereo not shown) | -3.54%
14 | O=C(O)CCN1C(=O)/C(=C\c2ccc(OCc3ccccc3)c(OCc3ccccc3)c2)SC1=S | 18.3%
15 | O=C(c1ccco1)c1cn(CC(=O)N2CCCc3ccccc32)c2ccccc12 | -14.6%
16 | Cc1nc(SCC(O)CO)c([N+](=O)[O-])[nH]1 (stereo not shown) | 6.84%
17 | Cc1cc(NC(=O)c2cccc([N+](=O)[O-])c2)n(-c2ccccc2)n1 | -13.3%
18 | Cc1cccc(/C=C2\Sc3ccc(C(=O)N4CCC(C(N)=O)CC4)cc3N(C)C2=O)c1 | -49.3%
19 | Cc1ccc(N)c(C)c1 | 8.3%
20 | CN1C(=O)C2(C(C#N)=C(N)N(c3cc(Cl)cc(Cl)c3)C3=C2C(=O)CC(C)(C)C3)c2ccccc21 (stereo not shown) | -4.26%
21 | O=C(Nc1cc(Cl)ccc1Cl)c1ccco1 | 9.8%
22 | CCCC(=O)n1nc(-c2cccnc2)nc1N | -27.1%
23 | CCCNc1cc(C)oc(=O)c1C(=O)CCC | -6.08%
24 | COc1ccc(OCC(O)CN2C(=O)NC(C)(C)C2=O)cc1 (stereo not shown) | 18.5%
25 | O=c1[nH]c(SCc2ccccc2F)nc2ccccc12 | 14.1%
26 | O=C1c2ccccc2C(=O)N1Cc1cc(Cl)c(O)c([N+](=O)[O-])c1 | -15.7%
27 | COc1cc(OC)c(OC)cc1CN1CCN(S(=O)(=O)c2ccc(F)cc2)CC1.O=C(O)C(=O)O | -7.69%
28 | COc1cc(S(=O)(=O)Nc2ccccc2N2CCCCC2)ccc1NC(C)=O | -28.8%

Row | Structure (SMILES) | hERG current change (%, negative = inhibition) at 10uM
29 | O=C(NOCc1ccccc1)c1ccccc1 | 15.9%
30 | Cc1cc2cc(CNC(=O)c3ccco3)ccc2n1C | -8.72%
31 | CC(=O)Nc1ccc(NC(=O)COc2ccc(Br)cc2C)cc1 | 13%
32 | Cc1[nH]c2ccccc2c1C(=O)COC(=O)C1CCC(=O)N1 (stereo not shown) | 6.72%
33 | COc1ccc(CN(C)CC(=O)Nc2cc3oc4ccccc4c3cc2OC)c(OC)c1 | -4.91%
34 | C[C@@H](C(=O)N[C@@H](Cc1c[nH]c2ccccc12)C(=O)O)n1nnc2ccccc2c1=O | 41.7%
35 | N=C(N)c1ccccc1 | -17.9%
36 | CCc1nnc(NC(=O)CSc2nnc(COc3ccccc3)n2-c2ccc(C)cc2)s1 | -26.5%
37 | C=C(C=O)CC1CC(O)[C@]2(C)OC3CC4OC5C[C@]6(C)O[C@]7(C)CCC8OC9C[C@]%10(C)OC%11C(C)=CC(=O)OC%11CC%10OC9C[C@@H](C)C8OC7CC6O[C@]5(C)CC5OC5C4OC3CC2O1 (stereo partly shown) | -28.1%
38 | CNC(=O)CSc1nnc(-c2ccco2)n1-c1ccccc1 | 1.5%
39 | CCOC(=O)C(C)Oc1ncnc2cccc(F)c12 (stereo not shown) | 10.5%
40 | COC(=O)C1=C(C)N(Cc2ccccc2)C(=NCc2cccc(C(F)(F)F)c2)N[C@H]1c1cccc(F)c1 | 1.99%
41 | Br.CC[C@H]1CN2CCC1C[C@H]2[C@H](O)c1ccnc2ccc(OC)cc12.O (stereo partly shown) | -40.7%
42 | Cc1ccccc1OC1CCN(C(=O)C2CCC(=O)N(C3CCCC3)C2)CC1 (stereo not shown) | 3.16%
43 | CN(C1CCCCC1)S(=O)(=O)Cc1ccccc1 | -6.28%
44 | Cc1cc(OCC(=O)Nc2nnc(C3CC3)s2)ccc1[N+](=O)[O-] | 22.2%
45 | CCCn1nc2cc(C(=O)N(CC)c3ccc(OC)cc3)ccc2c1OCC | 17.6%
46 | CSc1nnc(-c2sc3cc(C(F)(F)F)cnc3c2-c2ccccc2)n1C | -18.8%
47 | COc1ccccc1N1CCN(Cc2cccc(Br)c2)CC1.O=C(O)C(=O)O | -5.27%
48 | Cc1cnc(NC(=O)c2c(-c3ccccc3)noc2C)s1 | -2.27%
49 | N#Cc1ccccc1NC(=O)CN(Cc1ccccc1)Cc1ccccc1 | 16.4%
50 | CC1CCCCC1NC(=O)C1CCN(C(=O)NC2CCCCC2)CC1 (stereo not shown) | 5.72%
51 | CC(=O)C1=NN(c2ccccc2)C(c2cccs2)N1c1ccccc1 (stereo not shown) | 0.239%
52 | COc1ccc(NC(=S)N2CCC(C(=O)c3ccc(C)cc3)CC2)cc1 | -21.9%
53 | O=C(/C=C/c1ccco1)OCC(=O)c1cccc([N+](=O)[O-])c1 | 14%
54 | Cl.N=c1c2c(n(Cc3ccc(Cl)c(Cl)c3)c3c1CCC3)CCCC2 | -15.8%
55 | COc1ccc2[nH]cc(C(=O)CN3CCCC(C)C3)c2c1 (stereo not shown) | -13%

Source: PMC4336329 (PLoS ONE, 2015)
